Results on 20 variants are retold here after the RNAGym collection of RNA variant scans (doi:10.7554/elife.90254).

To fix the notation:
B1: OR4K15 (parent)
chain: GUUAACGGUCAUAGGCCAUGGAAACUAGGAGCACCAUUUCGCUGCCAGUGAAGAAAUGAACAAAGAAAAUCUGGGCCAGGCAGGCAUCAAAAGAAAUAGUCUUGCGCUCAACCAGAAAGUCUGUAAUCAUUUUAAGGGUA

Read counts are not given, so values of variants with three or more changes are uncertain.

This data set covers variants of B1. Put plainly: self-cleavage, relative activity (ratio to wild type); higher = more cleavage; in vitro, sequencing; the parent is a self-cleaving ribozyme.
On to GUUAACGGUCAUAGGCCAUGGGAACUAGGAGCACCAUUUCGCUGCCAGUGAAGAAAAGAACAAGGAAAAUCCGGGCCAGGCAGGCAUCAAAGGAAAUAGUCUAGCGCUCAACCAGAAAGUCUGUAAUCAUUUUAAGGGUA [A22G U57A A64G U72C A92G U103A], for which the self-cleavage was determined as 0.1.
For GUUAACGGUCAUAGGCCAUGGGAACUAGGAGCACCAUUUCGCUGCCAGAGAAGAAAUGAACAAAGAAAAUCUGGGCCAGGCAGGCAUCAAAAGAAACAGUCUUGCGCUCGACCAGAAAGUCUGUAAUCAUUUUAAGGGUA [A22G U49A U97C A110G], the self-cleavage was 0.14.
Then GUUAACGGUCAUAGGCCAUGGUAACUAGGAGCACCAUUUCGCUGCCAGUGAGGAAAAGAACAAAGAAAAUCUGGGCCAGGCAGGCAUCAAAAGAAAUAGUCUUGCGCUCAACCAGAAAGUCUGUAAUCAUUUUAAGGGUA [A22U A52G U57A], with 0.74; and GUUAACGGUCAUAGGCCAUGGGAACUAGGAGCACCAUUUCGCUGCCAGUGAAGAAAUGAACAAAGAAAAUCAGGGCCAGGCAGGCAUCAAAAGAAAUAGUCUUGCGCUCAACCAGAAAGUCUGUAAUCGUUUUAAGGGUA [A22G U72A A129G], with 0.1; and GUUAACGGUCAUAGGCCAUGGUAACUAGGAGCACCAUUUCGCUGCCAGUGAGGAAAAGAACAAAGAAAAUCUGGGCCAGGCGGGCAUCAAAAGAAAUAGUCUUGCGCUCAACCAGAAAGGCUGUAGUCAUUUUAAGGGUA [A22U A52G U57A A82G U120G A126G], with 0.07.
With GUUAACGGUCAUAGGCCAUGGGAACUAGGAGCACCAUUUCGCUGCCAGUGAAGAAACGAACAAAGAAAAUCUGGGCCAGGCAGGCAUCAAAAGAAAUAGUCUUGCGCUCGACCAGAAAGUCUGAAAUCAUUUUAAGGGUA [A22G U57C A110G U124A], the self-cleavage amounted to 0.03.
Take GUUAACGGUCAUAGGCCAUGGGAACUAGGAGCACCAUUUCGCCGCCAGCUAAGAAAUGAACAAAGAAAAUCUGGGCCAGGCAGGCACCAAGAGAAAUAGUCUUGCGCUCAACCAGAAAGUCUGUAAUCAUUUUAAGGGUA [A22G U43C U49C G50U U87C A91G]: the self-cleavage came to 0.66.
For GUUAACGGUCAUAGGCCAUGGGAACUAGGAGCACCAUUUCGCUGCCAGUGAAGAAAUGAACAAAGAAAAUCUGGGCCAGGCAGGCAUCAAAAGAAACAGUCUUGCGCUCAACCAGGAAGUCUGUAAUCAUUUUAAGGGUA [A22G U97C A116G], the self-cleavage is 0.18.
For GUUAACGGUCAUAGGCCAUGGGAACUAGGAGCACCAUUUCGCUGCCAGUGAAGAAAUGAACAAAGAAAAUCUGGGCCAGGCAGGCAUCAAAAGAAAUAGUCUUGCGCUCAACCAGAAAGUCUGAAAUCAUCUUAAGGGUA [A22G U124A U131C], the self-cleavage was 1.05.
As for GUUAACGGUCAUAGGCCAUGGUAACUAGGAGCACCAUUUCGCUGCCGGUGAAGAAAUGAACAAAGAAAAUCUGGGCCAGGCAGGCAUCAAAAGGAAUAGUCUUGCGCUCAACCAGAAGGUCUGUAAUCAUUUUAAGGGUA [A22U A47G A94G A118G], the figure is 0.55; as for GUUAACGGUCAUAGGCCAUGGUAACUAGGAGCACCCUUUCGCUGCCAGCGAAGAAAUGAACAAAGAAAAUCUGGGCCAGGCAGGCAUCAAGAGAAAUAGUCUCGCGCUCAACCAGAAAGUCUGUAAUCAUUUUAAGGGUA [A22U A36C U49C A91G U103C], 0.86; as for GUUAACGGUCAUAGGCCAUGGGAACUAGGAGCACCAUUUCGCUGCCAGUGAAGAAAUGAACAAAGAAAAUCUGGGCCAGGCAGGCAUCAAAAGAAAUAGUCUUGCGCUCAACCAGAAAGUCUGUAAUCAUUCUAGGGGUA [A22G U132C A135G], 0.59.
With GUUAACGGUCAUAGGCCAUGGUAACUAGGAGCACCAUUUCGCUGCCAGUGAUGAAAUGAACAAAGAAAAUCUGGGCCAGGCAGGCAUCAAAAGAAAUAGCCUUGCGCUCAACCAGAAAGUCUGUAAUCAUUUUAAGGGUA [A22U A52U U100C], the self-cleavage was 2.96.
As for GUUAACGGUCAUAGGCCAUGGGAACUAGGAGCACCAUUUCGCUGCCAGUGAAGAAAUGAACAAAGAAAAUCCGGGCCAGGCAGGCACCAAAAGAAAUAGUCUUGCGCUCUACCAGAAGGUCUGUAAUUAUUUUAAGGGUG [A22G U72C U87C A110U A118G C128U A140G], the figure is 0.03; as for GUUAACGGUCAUAGGCCAUGGUAACUAGGAGCGCCAUUUCGCUGCCAGUGAAGAAAUGGACAAAGAAAAUCUGGGCCAAGCAGGCAUCAAAAGAAAUAGUCUUGCGCUCAACCAGAAAGUCUGUAAUCAUUUUAAGGGUA [A22U A33G A59G G79A], 0.39.
As to GUUAACGGUCAUAGGCCAUGGUAACUAGGAGCACCGUUUCGCUGCCAGUGAAGAAAUGAACAAGGAAAAUCUGGGCCAGGCAGGCAUCAAAGGAAAUAGUCUUGCGCUCAACCAGAAAGUCUGUAAUCAUUUUAAGGGUA [A22U A36G A64G A92G], the self-cleavage turned out to be 1.62.
As for GUUAACGGUCAUAGGCCAUGGUGACUAGGAGCACCAUUUCGCAGCCAGUGAAGAAAUGAACAAAGAAAAUCUGGGCCAGGCUGGCAUCAAAAGAAAUAGUCUUGCGCUCAGCCAGAAAGUCUGUAAUCAUUUUAAGGGUA [A22U A23G U43A A82U A111G], the figure is 0.05; as for GUUAACGGUCAUAGGCCAUGGUAACUAGGAGCACCAUUUCGCUGCCAGUGAUGAAAUGAACAAAGAAAAUCUGGGCCAGGCAGGCAUCAAAAGAAAUGGUCUUGCGCUCAACCAGAAAGUCUGUAAUCAUUUUAAGGGUA [A22U A52U A98G], 0.1; as for GUUAACGGUCAUAGGCCAUGGUAACUAGGAGCACCAUUUCGCUGCCAGUGAGGAAAUGAACAAAGAAAAUCUGGGCCAGGCGGGCAUCAAAAGAAAUAGUCUUGCGAUCAACCAGAAAGUCUGUAAUCAUUUUAAGGGUA [A22U A52G A82G C107A], 0.04.
For the variant GUUAACGGUCAUAGGCCAUGGGAACUAGGAGCACCAUUUCGCUGCCAGUGAAGAAAUGAACAAAGAAAAUCUGGGCCAGGCAGGCAUCAAAAGAAAUAGCCUUGCGCUCUACCAGAAAGUCUGUAAUCAUUUUAAGGGUA [A22G U100C A110U], the self-cleavage amounted to 1.11.
